Experimental data taken from PubChem BioAssay AID504706 (National Center for Advancing Translational Sciences (NCATS), 2011).
The whole screen tested about 320,000 compounds, of which about 200 (0.062%) were called active. Inconclusive means that the source gave no clear call. Such entries were picked first, then a sample of the others. Calls follow the shape of the dose curve; as a rule, active = well fitted activation curve with a large enough effect; inconclusive = small, poorly fitted or top-dose-only effect; inactive = no such curve, though single readings can be large or run the other way. No potency is given beside an inconclusive call; the fits are too rough.

Assay: qHTS assay for re-activators of p53 using a Luc reporter; also: nearly all actives have a fitted effect of over 45% in size
Settings: H1299 p53-A138V BP100-luciferase reporter, luminescence, 24 h; series mostly up to 92.2 µM
Method in brief: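 H1299 (p53-null), stable ts p53-A138V + BP100-Luc; 1000 cells/well, Opti-MEM/10% FBS; cpd 4 pt, 1:5; 24 h, 37 deg C, 5% CO2; detection reagent 10 min RT; luminescence.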
Potency is read from the fitted curve at half-maximal effect; tags tell the direction and shape of the fitted curve.

Structure (SMILES)	Potency
Cc1ccc(S(=O)(=O)Nc2ccc(SC(F)F)cc2)c(C)c1	inactive
COC(=O)CSc1nnc(CNc2nc(-c3ccccc3)cs2)n1C	inactive
O=C(Nc1ncc(Cc2ccccc2)s1)C1CCCO1 (stereo not drawn)	inconclusive [activator, partial curve, poor fit]
COc1ccc(CNC(=O)CSc2nccn(-c3ccc(F)c(F)c3)c2=O)cc1	inactive
COc1ccc(-c2cccc(C(=O)Nc3ccc(OC)c(OC)c3)c2)cc1	inactive
CC1CCN(c2cc(=O)n(C3CCCCC3)c(=O)[nH]2)CC1	inconclusive [activator, single point]
O=S(=O)(c1cccc(-c2csc(-c3ccccc3)n2)c1)N1CCOCC1	inactive
Cc1cc(N2CCC(N(C)C3CCCC3)CC2)nc2cc(O)ccc12	inconclusive [activator, single point]
COc1ccc(Cl)cc1C(=O)O/N=C(\N)c1ccccn1	inconclusive [activator, partial curve, poor fit]
O=C(c1ccc(COc2ccccc2)o1)N1CCN(S(=O)(=O)c2ccccc2Cl)CC1	inactive
O=C1OC(Cc2ccccn2)C(O)=C1C1=NCCCCN1 (stereo not drawn)	inconclusive [activator, partial curve, poor fit]
O=C(Cc1nn[nH]n1)NCCC1=CCCCC1	inconclusive [activator, single point]
CCN1CCN(c2ccc(S(=O)(=O)N3CCCCC3)cc2NC(=O)/C=C/c2ccc([N+](=O)[O-])cc2)CC1	inconclusive [activator, single point]
COc1ccccc1OCC(=O)Nc1oc(-c2ccccc2)c(-c2ccccc2)c1C#N	inactive
CC(OC(=O)CNC(=O)c1ccccc1F)C(=O)Nc1nc(-c2ccccc2)cs1 (stereo not drawn)	inconclusive [activator, partial curve, poor fit]
CSCC(C)N1CCC(CO)(CCc2ccccc2)CC1 (stereo not drawn)	inactive
Cc1c(Cl)cnc(NC(=O)COC(=O)c2ccc3ncsc3c2)c1Cl	inconclusive [activator, partial curve, poor fit]
CCCCCC(=O)NNC(=O)Nc1ccccc1	inactive
O=C(Nc1nc2ccc(F)cc2s1)C1=NN(c2ccccc2)C(=O)CC1	inconclusive [activator, partial curve, poor fit]
COc1cc(C(=O)Nc2cccc(S(=O)(=O)N3CCCC3)c2)cc(OC)c1C	inconclusive [activator, single point]
CCC(C)(C)n1nnnc1CN(Cc1ccco1)Cc1cc2cc3c(cc2[nH]c1=O)OCO3	inactive
COc1ccc(CCN2CCCC(CN(C)Cc3cc(OC)ccc3OC)C2)cc1 (stereo not drawn)	inactive
COc1cc(NC(=O)CSc2ccc(-c3ccccn3)nn2)cc(OC)c1	inconclusive [activator, single point]

Structure (SMILES)	Potency
O=C(Cn1cnc2c(cnn2-c2ccccc2)c1=O)OCc1ccccc1	inconclusive [activator, full curve, poor fit]
Cc1ccc(Nc2c(-c3ccccn3)nc3cc(C)ccn23)cc1	inconclusive [activator, full curve]
Cc1csc(SCC(=O)Nc2cc([N+](=O)[O-])ccc2F)n1	inconclusive [activator, partial curve, poor fit]
Cn1c(SCC2CCCO2)nnc1-c1cccc([N+](=O)[O-])c1 (stereo not drawn)	inconclusive [activator, partial curve, poor fit]
O=C(/C=C/c1cccs1)Nc1ccncc1	inconclusive [activator, partial curve, poor fit]
O=c1c2c(nc3c(-c4ccccc4)c[nH]n13)CCCC2	inactive
COc1cc(/C=C2/C(=O)NN(c3ccc(Cl)cc3)C2=O)ccc1OC(=O)c1ccco1	inactive
CC(C)Sc1nsc2nc(=O)c(/C=C3\C=Nc4ccccc43)c(N)n12	inconclusive [activator, partial curve, poor fit]
O=C(NCc1cccnc1)c1ccc(S(=O)(=O)N2CCOCC2)cc1	inactive
CC(C)(C)C(=O)Cn1ncc(N2CCCC2)c(Br)c1=O	inactive
O=C(Nc1ccccc1)OCCOc1ccccc1	inconclusive [activator, full curve, poor fit]
CCOC(=O)CSc1nnc([C@H](C)NC(=O)OC(C)(C)C)o1	inactive
CC(=O)c1ccc2c(ccc3ccccc32)c1	inconclusive [activator, partial curve, poor fit]
COc1ccccc1C(=O)Nc1ccnn1C1CCN(Cc2ccccc2OCCO)CC1	inconclusive [activator, single point]
Cc1cccc(-n2c(C)c(C)c3c(N)ncnc32)c1	inactive
CCCc1sc(N/N=C/c2ccccn2)nc1-c1ccc(F)cc1	inconclusive [activator, partial curve, poor fit]
O=C(NNC(=O)c1cc2ccccc2oc1=O)c1ccccc1[N+](=O)[O-]	inconclusive [activator, single point]
CC(C)(O)C#Cc1ccc(C(=O)N2CCN(c3ccc([N+](=O)[O-])cc3)CC2)cc1	inactive
O=C(CC1=NC2(CCCC2)Cc2ccccc21)N1CCOCC1	inconclusive [activator, partial curve, poor fit]
c1coc(CNc2nc3ccccc3s2)c1	inconclusive [activator, partial curve, poor fit]
O=C(CSc1nnc(-c2ccccc2)o1)NC1CCCCC1	inconclusive [activator, partial curve, poor fit]
C/C(=N\NC(=O)c1ccccc1Cl)c1ccccn1	inconclusive [activator, partial curve, poor fit]
CC1C(=O)NN=C1C(=O)N/N=C/c1cccs1 (stereo not drawn)	inactive

Structure (SMILES)	Potency
CC(C)CCn1c(CN2CCOCC2)nc2c1c(=O)n(C)c(=O)n2C	inconclusive [activator, partial curve, poor fit]
Cc1cc(-c2nc3ncccc3o2)ccc1N	inconclusive [activator, partial curve, poor fit]
Cc1ccc(N2CC(C(=O)N3CCOCC3)CC2=O)cc1Cl (stereo not drawn)	inconclusive [activator, single point]
Cc1nc2ccc(N=NC3=C(O)CC(C)(C)CC3=O)cc2s1	inconclusive [activator, partial curve, poor fit]
Cc1csc(NC(=O)c2ccc(C)o2)n1	inconclusive [activator, full curve, poor fit]
CC(/C=C1\SC(=O)N(CC(=O)Nc2ccc(O)cc2)C1=O)=C\c1ccccc1	inconclusive [activator, single point]
COc1ccc(-c2nnc(-c3ccc(C)cc3)o2)cc1	inconclusive [activator, partial curve, poor fit]
COc1cccc(/C=N/NC(=S)Nc2cccnc2)c1	inactive
O=C([C@@H]1CCCN1C(=O)c1cccs1)N1CCN(S(=O)(=O)c2cccc(F)c2)CC1	inactive
Cc1cc(N)n2ncc(-c3ccc(Cl)cc3)c2n1	inconclusive [activator, full curve, poor fit]
COc1ccc(CCNC(=O)CN(C2CCCCC2)S(C)(=O)=O)cc1OC	inconclusive [activator, partial curve, poor fit]
O=C(Cn1ncc2c([nH]c3ccccc32)c1=O)N1CCN(c2ccccn2)CC1	inconclusive [activator, single point]
CCCC(C)c1nnc(NC(=O)C2CCCO2)s1 (stereo not drawn)	inconclusive [activator, full curve, poor fit]
C[n+]1c2n(c3ccccc31)N=C(c1ccc(Br)cc1)CS2	inconclusive [activator, single point]
O=C(Cn1cnc2ccccc2c1=O)c1ccc2c(c1)OCCO2	inconclusive [activator, partial curve, poor fit]
Cc1nn(-c2ccccc2)c(N2CCCC2)c1/C=N/NC(=S)Nc1ccccc1C(F)(F)F	inconclusive [activator, single point]
COc1ccc(NC(=O)c2nnn(Cc3ccc(SC)cc3)c2N)c(OC)c1	inactive
Oc1ccc(N=C/C=C/c2cccc(Br)c2)cc1-c1nc2ccccc2s1	inconclusive [activator, full curve, poor fit]
CC(=O)c1ccc(NC(=O)Oc2ccccc2)cc1	inactive
O=C(OC[C@H]1O[C@@H](OC(=O)c2cc(O)c(O)c(OC(=O)c3cc(O)c(O)c(O)c3)c2)[C@H](OC(=O)c2cc(O)c(O)c(OC(=O)c3cc(O)c(O)c(O)c3)c2)[C@@H](OC(=O)c2cc(O)c(O)c(OC(=O)c3cc(O)c(O)c(O)c3)c2)[C@@H]1OC(=O)c1cc(O)c(O)c(OC(=O)c2cc(O)c(O)c(O)c2)c1)c1cc(O)c(O)c(OC(=O)c2cc(O)c(O)c(O)c2)c1	inactive
FC(F)(F)c1ccc(N2CCOCC2)c(Nc2nc3ccccc3n3cnnc23)c1	inactive
Cc1ccc(NN=C2c3ccccc3-c3ccccc32)cc1	inconclusive [activator, full curve, poor fit]
